For some of these results: The strong results were mostly taken out for another list; the other results follow. The entries are a selection whose mix differs from that of the whole data set.
Legend:
Conditions in all cases: concentration: 1 μM,replicates: in singlicate; n = 1
LATS1 = system: LATS1
LATS2 = system: LATS2
LCK = system: LCK
LIMK1 = system: LIMK1
LIMK2 = system: LIMK2
LKB1 = system: T1, LKB1
T1 construct: gene STK11

LOK = system: T2, LOK
T2 construct: gene STK10

LRRK2 = system: LRRK2
LTK = system: LTK
LYN = system: LYN
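Note: KINOMEscan kinase panel screen.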

O=C1NC(=O)C(c2ccccc2Cl)=C1Nc1ccccc1 [SB-376715]
%Inh (LATS1): 20% | %Inh (LATS2): 3% | %Inh (LCK): 9% | %Inh (LIMK1): 15% | %Inh (LIMK2): 0% | %Inh (LKB1): 98% | %Inh (LOK): 0% | %Inh (LRRK2): 0% | %Inh (LTK): 3% | %Inh (LYN): 0%

Cc1cc(C)cc(Oc2nccc(-c3c(-c4ccc(F)cc4)ncn3C3CCNCC3)n2)c1.O=C(O)C(F)(F)F.O=C(O)C(F)(F)F.O=C(O)C(F)(F)F [SB-284851]
%Inh (LATS1): 0% | %Inh (LATS2): 0% | %Inh (LCK): 20% | %Inh (LIMK1): 5% | %Inh (LIMK2): 0% | %Inh (LKB1): 0% | %Inh (LOK): 0% | %Inh (LRRK2): 0% | %Inh (LTK): 15% | %Inh (LYN): 0%

CS(=O)(=O)c1ccccc1-c1nc(-c2ccc(F)cc2)c(-c2ccncc2)[nH]1 [SB-213663]
%Inh (LATS1): 5% | %Inh (LATS2): 27% | %Inh (LCK): 0% | %Inh (LIMK1): 0% | %Inh (LIMK2): 0% | %Inh (LKB1): 27% | %Inh (LOK): 10% | %Inh (LRRK2): 0% | %Inh (LTK): 35% | %Inh (LYN): 12%

Cc1ccc(C)c(Oc2nccc(-c3c(-c4ccc(F)cc4)ncn3C3CCNCC3)n2)c1.O=C(O)C(F)(F)F.O=C(O)C(F)(F)F.O=C(O)C(F)(F)F [SB-284852]
%Inh (LATS1): 0% | %Inh (LATS2): 0% | %Inh (LCK): 19% | %Inh (LIMK1): 1% | %Inh (LIMK2): 0% | %Inh (LKB1): 0% | %Inh (LOK): 21% | %Inh (LRRK2): 0% | %Inh (LTK): 17% | %Inh (LYN): 7%

O=C1NC(=O)C(c2ccc(Cl)cc2)=C1Nc1cccc(O)c1 [SB-333613]
%Inh (LATS1): 0% | %Inh (LATS2): 34% | %Inh (LCK): 0% | %Inh (LIMK1): 0% | %Inh (LIMK2): 0% | %Inh (LKB1): 61% | %Inh (LOK): 6% | %Inh (LRRK2): 4% | %Inh (LTK): 12% | %Inh (LYN): 3%

O=C1NC(=O)C(c2ccc(Cl)cc2)=C1Nc1ccc(O)c(Cl)c1 [SB-405367]
%Inh (LATS1): 0% | %Inh (LATS2): 18% | %Inh (LCK): 3% | %Inh (LIMK1): 0% | %Inh (LIMK2): 0% | %Inh (LKB1): 40% | %Inh (LOK): 4% | %Inh (LRRK2): 0% | %Inh (LTK): 0% | %Inh (LYN): 0%

O=C1NC(=O)C(c2ccc(Cl)cc2)=C1Nc1cccc(C(=O)O)c1 [SB-360737]
%Inh (LATS1): 0% | %Inh (LATS2): 0% | %Inh (LCK): 17% | %Inh (LIMK1): 11% | %Inh (LIMK2): 11% | %Inh (LKB1): 0% | %Inh (LOK): 9% | %Inh (LRRK2): 0% | %Inh (LTK): 3% | %Inh (LYN): 0%

O=C1NC(=O)C(c2ccccc2)=C1Nc1ccc(Cl)c(C(=O)O)c1 [SB-390532]
%Inh (LATS1): 0% | %Inh (LATS2): 2% | %Inh (LCK): 0% | %Inh (LIMK1): 8% | %Inh (LIMK2): 0% | %Inh (LKB1): 11% | %Inh (LOK): 2% | %Inh (LRRK2): 8% | %Inh (LTK): 6% | %Inh (LYN): 3%

O=C1NC(=O)C(c2ccccc2Cl)=C1Nc1cccc(C(=O)O)c1 [SB-390526]
%Inh (LATS1): 29% | %Inh (LATS2): 13% | %Inh (LCK): 6% | %Inh (LIMK1): 0% | %Inh (LIMK2): 0% | %Inh (LKB1): 29% | %Inh (LOK): 0% | %Inh (LRRK2): 0% | %Inh (LTK): 0% | %Inh (LYN): 2%

COc1cccc(C2=C(Nc3ccc(SC)cc3)C(=O)NC2=O)c1 [SB-331032]
%Inh (LATS1): 2% | %Inh (LATS2): 0% | %Inh (LCK): 20% | %Inh (LIMK1): 6% | %Inh (LIMK2): 10% | %Inh (LKB1): 22% | %Inh (LOK): 31% | %Inh (LRRK2): 0% | %Inh (LTK): 0% | %Inh (LYN): 15%

CSc1ccc(NC2=C(c3cccc(Cl)c3)C(=O)NC2=O)cc1 [SB-341528]
%Inh (LATS1): 0% | %Inh (LATS2): 11% | %Inh (LCK): 0% | %Inh (LIMK1): 0% | %Inh (LIMK2): 0% | %Inh (LKB1): 0% | %Inh (LOK): 0% | %Inh (LRRK2): 0% | %Inh (LTK): 0% | %Inh (LYN): 0%

O=C1NC(=O)C(c2ccccc2)=C1Nc1cc(Cl)c(O)c(Cl)c1 [SB-390530]
%Inh (LATS1): 16% | %Inh (LATS2): 0% | %Inh (LCK): 0% | %Inh (LIMK1): 0% | %Inh (LIMK2): 0% | %Inh (LKB1): 0% | %Inh (LOK): 23% | %Inh (LRRK2): 39% | %Inh (LTK): 14% | %Inh (LYN): 0%

O=C1NC(=O)C(c2ccc(Cl)cc2)=C1Nc1ccccc1 [SB-317661]
%Inh (LATS1): 0% | %Inh (LATS2): 0% | %Inh (LCK): 0% | %Inh (LIMK1): 0% | %Inh (LIMK2): 0% | %Inh (LKB1): 0% | %Inh (LOK): 0% | %Inh (LRRK2): 0% | %Inh (LTK): 0% | %Inh (LYN): 0%

O=C1NC(=O)c2c1c(-c1ccccc1)cc1[nH]c3ccc(O)cc3c21
%Inh (LATS1): 0% | %Inh (LATS2): 28% | %Inh (LCK): 0% | %Inh (LIMK1): 0% | %Inh (LIMK2): 0% | %Inh (LKB1): 13% | %Inh (LOK): 55% | %Inh (LRRK2): 13% | %Inh (LTK): 0% | %Inh (LYN): 0%

COc1ccc(C2=C(Nc3cccc(Cl)c3)C(=O)NC2=O)cc1 [SB-326892]
%Inh (LATS1): 20% | %Inh (LATS2): 22% | %Inh (LCK): 0% | %Inh (LIMK1): 3% | %Inh (LIMK2): 7% | %Inh (LKB1): 0% | %Inh (LOK): 27% | %Inh (LRRK2): 0% | %Inh (LTK): 40% | %Inh (LYN): 0%

O=C(O)c1ccc(-c2nc(-c3ccc(F)cc3)c(-c3ccncc3)[nH]2)cc1 [SB-202620]
%Inh (LATS1): 13% | %Inh (LATS2): 0% | %Inh (LCK): 7% | %Inh (LIMK1): 10% | %Inh (LIMK2): 1% | %Inh (LKB1): 32% | %Inh (LOK): 33% | %Inh (LRRK2): 0% | %Inh (LTK): 23% | %Inh (LYN): 14%
